Test results published in ChEMBL document CHEMBL4888484, “Replenishing the malaria drug discovery pipeline: Screening and hit evaluation of the MMV Hit Generation Library 1 (HGL1) against asexual blood stage Plasmodium falciparum ,using a nano luciferase reporter read-out” (2022).
About 540 (0.36%) of roughly 150,000 compounds showed an effect of 50% or more. The list shows a part of the results.

test system: Plasmodium falciparum; assay: Primary screen in NF54 nanoGlo assay, in single point, at 2uM, 72h; a lower Z score goes with more inhibition; type: functional, Erythrocyte; settings: timepoint 72 hour

Row | SMILES | % Inhibition | Z score
1 | CC(C)c1ccccc1CN1CC[C@@]2(O)C[C@H]2C1 | -16% | 1.44
2 | CC(C)Cn1cc(C(=O)O[C@@H](C)C(N)=O)cn1 | -16% | 3.01
3 | COc1ccccc1NC(=O)N1C[C@@H]2C[C@H](C1)c1ccc(C3CCCCC3)c(=O)n1C2 | -4% | 0.68
4 | COc1cc(=O)n(C)cc1C(=O)N1CCC2(CC1)OCCO2 | 5% | -1.01
5 | Cc1nn(C[C@H](C)NCc2nnc(N)s2)c(C)c1Cl | -1% | 0.16
6 | O=C1NCCC[C@@]12CCN(Cc1c(Cl)cncc1Cl)C2 | -18% | 3.01
7 | COC(CN1CCC2(CCCC2)C1)OC | -3% | 0.24
8 | CN(C)C(=O)Oc1ccc(OCC#N)cc1 | -7% | 0.77
9 | C[C@H](NC(=O)N1CC2CCC1CN2)c1cncc(F)c1 (stereo partly drawn) | -7% | 1.31
10 | O=C(c1ccc(CO)cc1)N1C[C@@H](c2cccc(O)c2)[C@@H]2[C@H]1C1CCN2CC1 | -5% | 0.92
11 | CCOC(=O)Cn1nnnc1C1(N2CCOCC2)CCCCC1 | -40% | 4.68
12 | CC1CCCC(OC(C)C(=O)Nc2cccc(-c3noc(=O)[nH]3)c2)C1 (stereo not drawn) | 3% | -0.58
13 | C[S+](C)c1c([O-])[nH]c(=O)n(-c2ccccc2)c1=O | -6% | 0.77
14 | CCc1nccn1C[C@H](C)NCCc1scnc1C | -9% | 1.15
15 | CC[C@H]1CCCCN1C(=O)c1cn(Cc2cccc(OC)c2)cc(C(=O)NCc2ccc(C)o2)c1=O | 3% | -0.39
16 | O=C(CNc1ccc(Cl)c(F)c1)N1CCC2(CC1)OCCO2 | 28% | -3.19
17 | Cc1ncsc1C(=O)N[C@H]1COC[C@@H]1N1CCN(C)CC1 | -6% | 0.97
18 | Cc1nccn1CCN1CCN(C(=O)Cc2c[nH]c3ccccc23)CC1 | 2% | -0.37
19 | CCCCC1(CCCC)C(=O)NC(=Nc2ccc(C)cc2)NC1=O | 40% | -5.1
20 | O=c1[nH]c2cc(NS(=O)(=O)c3ccc(C4CCCCC4)cc3)ccc2o1 | 38% | -5.45
21 | Cc1[nH]c2ccccc2c1C1CCN([C@@H](C)c2nnnn2C)CC1 | -18% | 3.01
22 | Cc1nc(CC(=O)N2CCN(Cc3nonc3C)CC2)cs1 | -7% | 0.68
23 | CN(C(=O)c1nn(Cc2ccccc2)c2nccc(-c3cccs3)c12)C1CCCCC1 | -6% | 1.01
24 | CCCCOCC(=O)N1CCCC2CN(C)CCC21 (stereo not drawn) | -12% | 1.21
